In PubChem BioAssay AID504375 (National Center for Advancing Translational Sciences (NCATS), 2011):
Hit rate of the full screen: of about 1,600 compounds, about 25 (2%) were called active. Inconclusive results, whose numbers are uncertain, are shown with a selection of clear calls. Calls come from the whole dose curve; as a rule, active = well fitted inhibition curve with a large enough effect; inconclusive = small, poorly fitted or top-dose-only effect, or effect the other way; inactive = no such curve, though single readings can be large or run the other way. Potencies of inconclusive entries are doubtful fits and often do not repeat. Peptide text beside a SMILES is read from it.

target: Runt-related transcription factor 1 (Homo sapiens) + Core-binding factor subunit beta (Homo sapiens) (UniProt Q01196+Q13951); experiment: qHTS Assay for Compounds Blocking the Interaction Between CBF-beta and RUNX1 for the Treatment of Acute Myeloid Leukemia: Hit Validation with Orthogonal Assay; conditions: CBFbeta-RUNX1 binding orthogonal assay, biochemical; series mostly up to 41 µM
Procedure, shortened: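 This is an orthogonal TR-FRET assay. His6-CBF-beta and biotin-RUNX1 (30 nM each) were preincubated with compound for 30 min, then Tb-anti-His antibody (0.44 ng) and streptavidin-XL665 (5 nM) were added. The signal was read after 90 min.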
Potency is the fitted concentration of half-maximal effect; tags give direction and shape of the fitted curve.

Chain of UniProt Q01196 (Q01196 whole entry, looked up): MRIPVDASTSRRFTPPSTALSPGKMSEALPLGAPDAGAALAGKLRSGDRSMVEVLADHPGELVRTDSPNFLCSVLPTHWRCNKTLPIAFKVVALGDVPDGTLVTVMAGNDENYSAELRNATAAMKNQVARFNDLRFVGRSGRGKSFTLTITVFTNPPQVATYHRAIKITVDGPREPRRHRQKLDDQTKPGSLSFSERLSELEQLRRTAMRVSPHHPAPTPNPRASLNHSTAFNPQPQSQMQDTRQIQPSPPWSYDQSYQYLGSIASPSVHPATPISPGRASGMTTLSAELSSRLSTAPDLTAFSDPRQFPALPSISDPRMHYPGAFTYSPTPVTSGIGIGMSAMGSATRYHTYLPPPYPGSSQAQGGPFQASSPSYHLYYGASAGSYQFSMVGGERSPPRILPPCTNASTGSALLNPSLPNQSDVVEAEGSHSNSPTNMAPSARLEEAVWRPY
Chain of UniProt Q01196 (Q13951 whole entry, looked up): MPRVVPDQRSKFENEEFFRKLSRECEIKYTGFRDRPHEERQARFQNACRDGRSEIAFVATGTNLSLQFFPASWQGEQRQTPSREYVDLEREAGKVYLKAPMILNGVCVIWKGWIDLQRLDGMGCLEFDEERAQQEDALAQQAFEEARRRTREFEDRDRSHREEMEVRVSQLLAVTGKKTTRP

O=[N+]([O-])c1cccnc1Oc1ccc(F)cc1 was tested. Which Potency did it give?
The Potency was “inactive”.

With C=C1c2cccc(O)c2C(O)=C2C(=O)[C@@]3(O)C(O)=C(C(N)=O)C(=O)[C@@H](N(C)C)[C@@H]3[C@@H](O)[C@H]12 as the molecule, how does the Potency read?
The Potency was inconclusive: 22.4 µM [inhibitor, full curve].

With Nc1cccc(N)c1 as the molecule, how does the Potency read?
The Potency was inconclusive: 28.1 µM [inhibitor, single point].

Which Potency does the source give for COc1ccc(S(=O)(=O)N2CCOCC2)cc1N=Nc1sc(N)nc1-c1ccccc1 here?
Its Potency is inconclusive: 2.82 µM [activator, full curve].

O=C(O)C(Cc1ccccc1)N1C(=O)/C(=C/C=C/c2ccco2)SC1=S (stereo not given) was tested. Which Potency did it give?
The Potency was inconclusive: 15.8 µM [inhibitor, full curve].

For CCCC(=O)c1cc(O)c(O)cc1O, which Potency is on record?
The Potency was inconclusive: 15.8 µM [inhibitor, full curve].

CC(C)(C)c1ccc(C(=O)Cn2nc(C(=O)O)c3ccccc3c2=O)cc1 was tested. Which Potency did it give?
Its Potency is “inactive”.

With CCNC1=C(Cl)C(=O)c2ccccc2C1=O as the molecule, how does the Potency read?
Its Potency is inconclusive: 7.94 µM [activator, full curve].

COc1ccccc1/C=C/C=NC1C(=O)N(c2ccccc2)[N+](C)=C1C (stereo not given) was tested. Which Potency did it give?
The Potency was “inactive”.

How did the Potency turn out when Cn1c(=O)c2c(ncn2CC(=O)N/N=C/C=C/c2ccco2)n(C)c1=O was run?
The Potency was inconclusive: 79.4 µM [inhibitor, single point].

How did the Potency turn out when N#Cc1ccc(C(c2ccc(C#N)cc2)n2cncn2)cc1 was run?
The Potency was inconclusive: 15.1 µM [inhibitor, single point].

For COCc1cc(O)c(O)c(O)c1-c1c(COC)cc(O)c(O)c1O, which Potency is on record?
Its Potency is inconclusive: 2.24 µM [inhibitor, full curve].

Which Potency does the source give for CCOC(=O)c1cc(-c2ccc(OC)cc2)nn1-c1ccccc1C(=O)O here?
The Potency was inconclusive: 31.6 µM [inhibitor, partial curve, poor fit].

CCCCCCCCCCCCCCCCCCOC[C@H](COP(=O)([O-])OCC[N+](C)(C)C)OC was tested. Which Potency did it give?
Its Potency is inconclusive: 22.3 µM [inhibitor, partial curve].

For N#C/C(=C\c1ccc(OC(=O)c2ccccn2)cc1)C(N)=O, which Potency is on record?
Its Potency is inconclusive: 0.0006 µM [inhibitor, full curve, poor fit].

Which Potency does the source give for Oc1ccc(/C=N/NC(=S)Nc2cccnc2)c(O)c1O here?
Its Potency is inconclusive: 2.82 µM [inhibitor, full curve].

Cc1nc2ccccc2nc1N1CCCC1 was tested. Which Potency did it give?
Its Potency is “inactive”.

How did the Potency turn out when COc1cc(C2c3cc4c(cc3C(OC3OC5COC(C)O[C@@H]5C(O)C3O)C3COC(=O)C23)OCO4)cc(OC)c1O (stereo not given in full) was run?
The Potency was inconclusive: 44.7 µM [inhibitor, partial curve, poor fit].

COCCn1c(-c2ccc(Br)cc2)nc2oc3cc(OC)ccc3c(=O)c2c1=O was tested. Which Potency did it give?
Its Potency is “inactive”.

How did the Potency turn out when O=c1[nH]cc(I)cc1I was run?
Its Potency is inconclusive: 0.0014 µM [inhibitor, full curve, poor fit].

How did the Potency turn out when CC(=O)NCC(=O)N[C@@H](CC(=O)OCc1ccccc1)C(=O)OCc1ccccc1 (HELM PEPTIDE1{[ac].G.D.[c1ccc(CO[*:1])cc1]}|CHEM1{[c1ccc(CO[*:1])cc1]}$PEPTIDE1,CHEM1,3:R3-1:R1$$$V2.0) was run?
The Potency was inconclusive: 35.5 µM [inhibitor, single point].

Which Potency does the source give for CN(C)c1ccc(Nc2c3c4c(cccc4n(C)c2=O)C(=O)c2ccccc2-3)cc1 here?
Its Potency is inconclusive: 14.1 µM [activator, partial curve].

Which Potency does the source give for O=C(c1cccnc1)C1Cc2ccccc2C1=O (stereo not given) here?
Its Potency is inconclusive: 8.91 µM [inhibitor, single point].

For O=[N+]([O-])c1ccc(-c2cn3c(n2)CCC3)cc1, which Potency is on record?
Its Potency is “inactive”.

For CN(C(=O)C(Cl)Cl)C1CC2C=CC1C2 (stereo not given), which Potency is on record?
Its Potency is “inactive”.

CC(=O)CCn1cc([N+](=O)[O-])nc1C was tested. Which Potency did it give?
Its Potency is “inactive”.

For O=[N+]([O-])c1ccc(O)c(/C=N/NC2=NS(=O)(=O)c3ccccc32)c1, which Potency is on record?
Its Potency is inconclusive: 7.94 µM [activator, full curve, poor fit].

Nc1nc(-c2ccccc2)c(N=Nc2ccccc2Cl)s1 was tested. Which Potency did it give?
The Potency was inconclusive: 0.0006 µM [inhibitor, full curve, poor fit].

For Cc1c(Cl)cccc1NC(=S)N(CCN(C)C)C(C)c1ccccn1 (stereo not given), which Potency is on record?
Its Potency is inconclusive: 13.7 µM [inhibitor, single point].

Which Potency does the source give for COc1ccc(NC(=O)CSc2ccc(-c3ccccn3)nn2)cc1OC here?
The Potency was inconclusive: 20 µM [inhibitor, partial curve].

With Cc1cccn(Cc2c(F)cccc2Cl)c1=O as the molecule, how does the Potency read?
Its Potency is “inactive”.

Which Potency does the source give for CCSc1cc(Cl)nc(N)n1 here?
Its Potency is “inactive”.

For Cc1ccc2c(c1C)NC(C(=O)O)C1CC=CC21 (stereo not given), which Potency is on record?
Its Potency is active: 7.08 µM.

Which Potency does the source give for O=C(O)/C=C/C(=O)Nc1cccc2cccnc12 here?
Its Potency is inconclusive: 25.1 µM [inhibitor, partial curve, poor fit].

How did the Potency turn out when Cc1onc(-c2ccccc2)c1C(=O)NNC(=S)NC(=O)c1ccc2c(c1)OCO2 was run?
Its Potency is “inactive”.

How did the Potency turn out when N#CC(C#N)=Cc1ccc(OC(=O)c2ccccn2)cc1 was run?
Its Potency is inconclusive: 0.0034 µM [inhibitor, full curve, poor fit].

With CC1(C)N([O-])C2=C(CCCC2)[N+]1=O as the molecule, how does the Potency read?
The Potency was inconclusive: 0.0159 µM [inhibitor, full curve, poor fit].

Which Potency does the source give for Cc1cc(C(=O)NC2Cc3ccccc3C2)c(C)o1 here?
The Potency was inconclusive: 4.47 µM [inhibitor, full curve].

How did the Potency turn out when CCOC(=O)c1cnc2c(F)ccc(F)c2c1Sc1ccccc1 was run?
The Potency was “inactive”.

Which Potency does the source give for COC(=O)c1cc(O)cc(OC)c1Oc1cc(C)cc(O)c1C(=O)O here?
The Potency was inconclusive: 11.2 µM [inhibitor, full curve].

Which Potency does the source give for Nc1nc(-c2ccccc2)c(N=Nc2cccc3ccccc23)s1 here?
The Potency was inconclusive: 8.91 µM [activator, full curve].

How did the Potency turn out when Cc1nn(-c2ccccc2)nc1C(=O)NNC(=O)c1cccc2ccccc12 was run?
The Potency was “inactive”.

Which Potency does the source give for Cn1c(SCC(=O)NC(=O)Nc2ccccc2)nnc1-c1ccncc1 here?
Its Potency is “inactive”.

Brc1ccc(C2Nc3cccc4cccc(c34)N2)o1 was tested. Which Potency did it give?
The Potency was inconclusive: 44.7 µM [activator, partial curve, poor fit].

How did the Potency turn out when CC1CC(=O)Nc2ccccc2N1C(=O)Nc1ccc(F)cc1 (stereo not given) was run?
Its Potency is inconclusive: 11.2 µM [inhibitor, partial curve, poor fit].
